This is an account of results in patent publication US20070111259A1 (BIOSITE, published 2007).

Assay [1] addresses T1, biotinylated interleukin 8 (IL8-biotin) (human, UniProt P10145 21-99, reacted with biotin-XX-NHS ester (1 mM); labelled residues not stated).
T1 construct: mature; also called IL-8 labeled with biotin; biotinylated IL-8
T1 sequence: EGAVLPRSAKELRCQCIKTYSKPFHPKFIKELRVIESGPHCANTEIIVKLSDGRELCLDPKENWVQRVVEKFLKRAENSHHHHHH
Briefly: fraction of Fab bound by a large excess of biotin-IL-8, removed on avidin magnetic latex.

Assay [2] concerns the target T1, biotinylated interleukin 8 (IL8-biotin). Briefly: solution equilibrium with 1e-10 M biotin-IL-8, B/F vs B plot, free Fab by sandwich ELISA.

B1: M2-12 (Fab)
heavy: DVQLVESGGGVVHPGRSLRLSCAASGFTFSYYGMHWVRQAPGKGLEWMTLISYDGDNKYYADSVKGRFTISRENSKNTLYLQMNSLRAEDTAVYYCARDGIGYFDYWGQGTLVTVSSASTKGPSVFPLAPSSKSTSGGTAALGCLVKDYFPEPVTVSWNSGALTSGVHTFPAVLQSSGLYSLSSVVTVPSSSLGTQTYICNVNHKPSSTKVDKKAEPKSHHHHHH
light: EIVMTQSPGTLSLSPGERATLSCRASQGVSSSYLAWYQQKPGQAPRLLIYGASSRATGIPDRFSGSGSGTDFTLTISSLEPEDFAVYYCQQYGSSPPYTFGQGTKLEIKRTVAAPSVFIFPPSDEQLKSGTASVVCLLNNFYPREAKVQWKVDNALQSGNSQESVTEQDSKDSTYSLSSTLTLSKADYEKHKVYACEVTHQGLSSPVTKSFNRGESYPYDVPDYAS
notes: also called M2_12H; M2_12L
Take B1: the “% Immunoreactive Protein” value in assay [1] turned out to be 93%. In assay [2], this molecule registered a Ka of 2.8e+11 M⁻¹.
